According to PubChem BioAssay AID651820 (National Center for Advancing Translational Sciences (NCATS), 2012):
The whole screen tested about 340,000 compounds, of which about 12,000 (3.5%) were called active. The inconclusive results got no clear call from the source; some entries with a clear call stand among them for comparison. Calls follow the shape of the dose curve; as a rule, active = well fitted inhibition curve with a large enough effect; inconclusive = small, poorly fitted or top-dose-only effect, or another doubt; inactive = no such curve, though single readings can be large or run the other way. Potencies of inconclusive entries are left out as doubtful fits. Some compounds were tested as several samples or in several runs, with calls that do not always agree.

Assay: qHTS Assay for Inhibitors of Hepatitis C Virus (HCV)
Conditions: Huh7.5.1 HCVcc-Cre (HCVcc is cell-culture hepatitis C virus) infection, luciferase reporter, 44 h; activity change, negative = inhibition: at 41.8 µM (top of the series)
Outline: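 Reporter virus HCVcc-Cre (~0.5 moi) infects cells exposed to compound; seeding density 1,000 cells/well with 4 h settling beforehand. Luminescence, 15 sec read, taken 44 h post-infection following a 15 min RT substrate incubation.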
% is scaled to controls: 0 for no effect and ±100 for the full control effect; potency is read from the fitted curve at half-maximal effect; tags tell the direction and shape of the fitted curve.

Row | Compound | Potency | activity change, negative = inhibition
1 | S=C(NCC1CCCO1)Nc1ccc(Cl)c(Cl)c1 (stereo not given) | inconclusive [inhibitor, single point] | –
2 | Cc1cccnc1NC(=O)CCCN1C(=O)c2ccccc2C1=O | – | inactive: 1.79%
3 | Cc1ccc(C(=O)NCCSc2ccc(Cl)cc2)cc1S(=O)(=O)Nc1ccccc1 | inconclusive [inhibitor, single point] | –
4 | CCN(CCCCOC(=O)c1ccc(OC)c(OC)c1)C(C)Cc1ccc(OC)cc1 (stereo not given) | inconclusive [inhibitor, partial curve] | –
5 | CCOc1ccccc1OCCOCCN1CC(C)OC(C)C1 (stereo not given) | inconclusive [inhibitor, single point] | –
6 | Cc1nc(=O)c(-c2ccccc2)c(C)n1-c1ccccc1 | – | inactive: -0.109%
7 | CCCN1C2CCCC1CC(NC(=O)c1ccc(C(C)(C)C)cc1)C2 (stereo not given) | inconclusive [inhibitor, single point] | –
8 | CCSc1nnc(NC(=O)C2CCN(S(=O)(=O)c3cc(C(F)(F)F)ccc3Cl)CC2)s1 | inconclusive [inhibitor, single point] | –
9 | Cc1[nH]c2ccccc2c1/C=N/NC(=S)NC(C)C | active: 10 µM | –
10 | CC(C)C(=O)Nc1cccc(C(=O)NCCc2ccc(S(N)(=O)=O)cc2)c1 | inconclusive [inhibitor, single point] | –
11 | CCCNC(=O)c1onc(CSc2ccc(Cl)cc2)c1C(=O)NC(C)C | inconclusive [inhibitor, full curve] | –
12 | C=CCn1c(=N)n(CC(=O)c2ccc(Cl)cc2)c2ccccc21 | inconclusive [inhibitor, single point] | –
13 | CCCCCC(=O)NNC(=O)c1ccc(-c2ccccc2)cc1 | inconclusive [inhibitor, partial curve] | –
14 | CSCCC(NC(=O)COc1ccccc1)C(=O)N(C)Cc1ccc(SC)cc1 (stereo not given) | inconclusive [inhibitor, partial curve] | –
15 | O=C(N/N=C/c1ccccc1F)C(=O)N1CCCCCC1 | – | inactive: 5.5%
16 | CC(=NNc1nc2ccccc2o1)c1cc2ccccc2cn1 | inconclusive [inhibitor, partial curve, poor fit] | –
17 | COc1ccccc1-n1cnnc1SC(C)C(=O)Nc1cccc([N+](=O)[O-])c1 (stereo not given) | inconclusive [inhibitor, single point] | –
18 | Cc1ccc(SCCN)cc1C | – | inactive: 16.5%
19 | Cc1ccc(-c2nc(CS(=O)CC(=O)NCCN(CC(C)C)CC(C)C)c(C)o2)cc1 (stereo not given) | active: 11.2 µM | –
20 | COc1ccc(Cn2nnnc2C(c2ccccc2)N2CCN(C3CCCC3)CC2)cc1 (stereo not given) | inconclusive [inhibitor, single point] | –
21 | CCOC(=O)Cn1c(=O)c2c(nc(Br)n2Cc2ccc(Cl)cc2)n(C)c1=O | inconclusive [inhibitor, partial curve] | –
22 | CCOc1cc(/C=C(/C#N)c2ccc(Cl)cc2)cc(Cl)c1OCC(=O)O | inconclusive [inhibitor, single point] | –
23 | CC(C)(C)c1ccc(-n2nc(C#N)c(Cl)cc2=O)cc1 | inconclusive [inhibitor, partial curve] | –

Row | Compound | Potency | activity change, negative = inhibition
24 | CCC(CO)NCc1ccccc1OC(C)C (stereo not given) | – | inactive: 24.5%
25 | COc1cc(/C=N/NC(=O)CCc2c(C)n[nH]c2C)cc(OC)c1OC | inconclusive [inhibitor, single point] | –
26 | Cc1cc(C)c(C#N)c(Sc2ccccc2N)n1 | inconclusive [inhibitor, single point] | –
27 | CN(CCOc1ccc(Cl)cc1)Cc1cccc(S(=O)(=O)N(C)C)c1 | inconclusive [inhibitor, single point] | –
28 | Cc1cc(NCCCN2CCOCC2)n2nc(C)c(-c3ccc(F)cc3)c2n1 | inconclusive [inhibitor, single point] | –
29 | CC1Cc2ccccc2N1C(=O)CO/N=C/c1ccccc1OC(F)F (stereo not given) | inconclusive [inhibitor, single point] | –
30 | Cc1cc(CC(C)C)n(-c2nc3ccccc3c(=O)n2OCC(=O)N(C)C)n1 | – | inactive: 11%
31 | COCCCNC(=O)C(C)N1c2cccc3cccc(c23)S1(=O)=O (stereo not given) | – | inactive: -3.02%
32 | O=C(COc1cccc2cccnc12)Nc1cccc(S(=O)(=O)N2CCCC2)c1 | active: 10 µM | –
33 | CC(=O)C(C)n1c(CN(C)Cc2ccccc2)nc2c1c(=O)n(C)c(=O)n2C (stereo not given) | inconclusive [inhibitor, single point] | –
34 | Cc1c(NC(=O)COc2ncnc3ccccc23)c(=O)n(-c2ccccc2)n1C | – | inactive: -2.98%
35 | COc1ccc(-c2cn[nH]c2-c2ccc(OCC(=O)NN)cc2O)cc1 | – | inactive: -2.79%
36 | CN(C)S(=O)(=O)c1ccc(NC(=O)/C=C/c2ccccc2Cl)cc1 | active: 8.91 µM | –
37 | O=[N+]([O-])c1ccc(Cl)cc1C=NNc1ccccn1 | inconclusive [inhibitor, single point] | –
38 | CC(OC(=O)c1cccnc1Cl)C(=O)NCc1ccccc1 (stereo not given) | – | inactive: 6.45%
39 | COc1cc2c(cc1OC)C(c1ccc(-c3ccccc3Cl)o1)=NCC2 | active: 5.62 µM | –
40 | CCC(C(=O)Nc1ccccc1OC)n1c(C(=O)OC)cc2ccsc21 (stereo not given) | inconclusive [inhibitor, partial curve] | –
41 | CCc1nc(SCC(=O)N2CCCCC2)c2c(=O)n(C)c(=O)n(C)c2n1 | inconclusive [inhibitor, partial curve] | –
42 | CC1=C(C(=O)OCC(C)C)C(c2ccccc2Cl)NC(=O)N1C (stereo not given) | inconclusive [inhibitor, single point] | –
43 | O=C(CN(c1ccccc1F)S(=O)(=O)c1ccccc1)Nc1ccc2c(c1)OCCO2 | inconclusive [inhibitor, single point] | –
44 | CCN1CCCC1CN(Cc1cc2ccc(C)cc2[nH]c1=O)C(=S)Nc1ccc(F)cc1 (stereo not given) | inconclusive [inhibitor, single point] | –
45 | O=C(Nc1ccccc1N1CCCCC1)c1ccc([N+](=O)[O-])o1 | inconclusive [inhibitor, partial curve] | –
